B1: PhoQ; a variant is named by its letters at X, in order, P23837 (parent)
chain: MKKLLRLFFPLSLRVRFLLATAAVVLVLSLAYGMVALIGYSVSFDKTTFRLLRGESNLFYTLAKWENNKLHVELPENIDKQSPTMTLIYDENGQLLWAQRDVPWLMKMIQPDWLKSNGFHEIEADVNDTSLLLSGDHSIQQQLQEVREDDDDAEMTHSVAVNVYPATSRMPKLTIVVVDTIPVELKSSYMVWSWFIYVLSANLLLVIPLLWVAAWWSLRPIEALAKEVRELEEHNRELLNPATTRELTSLVRNLNRLLKSERERYDKYRTTLTDLTHSLKTPLXXLQXXLRSLRSEKMSVSDAEPVMLEQISRISQQIGYYLHRASMRGGTLLSRELHPVAPLLDNLTSALNKVYQRKGVNISLDISPEISFVGEQNDFVEVMGNVLDNACKYCLEFVEISARQTDEHLYIVVEDDGPGIPLSKREVIFDRGQRVDTLRPGQGVGLAVAREITEQYEGKIVAGESMLGGARMEVIFGRQHSAPKDE

The list shows a part of the results. Where only a bound is given, the exact number is not on record here.

This experiment covers variants of B1. The experiment can be described thus: enrichment ratio after two sorts for PhoP signalling (ratio (wild type AVST 3.29)); higher = more functional. The following applies: with PhoP (E. coli).
On to AQKY, for which the enrichment ratio is at most 0.25.

Take HRMT: the enrichment ratio was at most 0.25.

Consider IHTN, for which the enrichment ratio is at most 0.25.

For KDHM, the enrichment ratio is at most 0.25.

With ICDT, the enrichment ratio was at most 0.25.

Regarding TTNM, the enrichment ratio was 4.46.

Take MFHK: the enrichment ratio was at most 0.25.

PHGL: the enrichment ratio is at most 0.25.

With WYWC, the enrichment ratio is at most 0.25.

GIQG: the enrichment ratio was at most 0.25.

In the case of DWAY, the enrichment ratio is at most 0.25.

Take PNAF: the enrichment ratio is at most 0.25.

TRAK: the enrichment ratio is at most 0.25.

For MYKA, the enrichment ratio is at most 0.25.

In the case of SFVD, the enrichment ratio is at most 0.25.

Regarding FLTE, the enrichment ratio was at most 0.25.

Regarding IQNA, the enrichment ratio is at most 0.25.

On to RCTG, for which the enrichment ratio was at most 0.25.

With FEVV, the enrichment ratio was found to be 11.9.

As for QATN, the enrichment ratio is at most 0.25.

For VTLN, the enrichment ratio worked out at 1.75.

Consider DVNV, for which the enrichment ratio was at most 0.25.

Turning to NYWD, the enrichment ratio was at most 0.25.

Turning to WTCG, the enrichment ratio is at most 0.25.

For the variant TIIL, the enrichment ratio was at most 0.25.

On to AAAL, for which the enrichment ratio was 4.97.

For the variant MVST, the enrichment ratio came to 1.58.

Take RFHQ: the enrichment ratio is at most 0.25.

MYRT: the enrichment ratio was at most 0.25.

In the case of RPHC, the enrichment ratio is at most 0.25.

On to NNYA, for which the enrichment ratio is at most 0.25.

Regarding MGSP, the enrichment ratio is at most 0.25.

As for HCYQ, the enrichment ratio is at most 0.25.

In the case of MMTM, the enrichment ratio was 10.9.

For MEFR, the enrichment ratio came to 2.74.

With EIFC, the enrichment ratio was at most 0.25.

In the case of QQYT, the enrichment ratio was at most 0.25.

As to TLLV, the enrichment ratio came to 1.16.

As for ESWD, the enrichment ratio was at most 0.25.

For KMEN, the enrichment ratio was at most 0.25.

As for FEWM, the enrichment ratio is at most 0.25.

On to LLDT, for which the enrichment ratio was at most 0.25.

For the variant NEWL, the enrichment ratio is 0.808.

As to PMRS, the enrichment ratio was at most 0.25.

As to VLRM, the enrichment ratio was at most 0.25.

For the variant EHKT, the enrichment ratio is at most 0.25.

Consider WGMP, for which the enrichment ratio is at most 0.25.

In the case of VHRF, the enrichment ratio is at most 0.25.

Consider FEPR, for which the enrichment ratio was at most 0.25.

For HQQF, the enrichment ratio was at most 0.25.

Turning to TEPY, the enrichment ratio was at most 0.25.

With TSRS, the enrichment ratio is at most 0.25.

Consider KKVF, for which the enrichment ratio was found to be 4.44.

In the case of RTRY, the enrichment ratio is at most 0.25.

Consider SQDL, for which the enrichment ratio was at most 0.25.

Consider SPTG, for which the enrichment ratio was at most 0.25.

Take IKEL: the enrichment ratio was at most 0.25.

In the case of SPSH, the enrichment ratio was at most 0.25.

In the case of WVLY, the enrichment ratio is at most 0.25.

Turning to SDAQ, the enrichment ratio was at most 0.25.

Turning to TIAP, the enrichment ratio was at most 0.25.

For the variant NMAR, the enrichment ratio was at most 0.25.

As to IWIT, the enrichment ratio is at most 0.25.

In the case of SVCI, the enrichment ratio came to 10.4.

Turning to VKMN, the enrichment ratio was at most 0.25.

Regarding NMVK, the enrichment ratio was at most 0.25.

As to AMMG, the enrichment ratio was at most 0.25.

With FMGY, the enrichment ratio is at most 0.25.

For IGLH, the enrichment ratio came to 0.557.

Take VAPF: the enrichment ratio is at most 0.25.

In the case of DKTH, the enrichment ratio was at most 0.25.

With MGSS, the enrichment ratio amounted to 0.306.

Take TPDV: the enrichment ratio is at most 0.25.

Consider EQFV, for which the enrichment ratio is at most 0.25.

RFLW: the enrichment ratio was at most 0.25.

As to ICPH, the enrichment ratio was at most 0.25.

As to ECRP, the enrichment ratio was at most 0.25.

Consider EDAP, for which the enrichment ratio is at most 0.25.

With WPDL, the enrichment ratio was at most 0.25.

As for LGMV, the enrichment ratio amounted to 3.91.

As to FRTN, the enrichment ratio is at most 0.25.

Turning to VGQF, the enrichment ratio was at most 0.25.

With YNIN, the enrichment ratio was at most 0.25.

Regarding QSFE, the enrichment ratio is at most 0.25.

Turning to DRIP, the enrichment ratio was at most 0.25.

For the variant SHNW, the enrichment ratio is at most 0.25.

On to QHIL, for which the enrichment ratio was at most 0.25.

Turning to NTQS, the enrichment ratio is at most 0.25.

In the case of QNCA, the enrichment ratio was at most 0.25.

Turning to TKER, the enrichment ratio is at most 0.25.

Regarding TKIC, the enrichment ratio was found to be 4.21.

Consider YHVQ, for which the enrichment ratio is at most 0.25.

As for DYNG, the enrichment ratio was at most 0.25.

As to VLNK, the enrichment ratio is at most 0.25.

As for WNVW, the enrichment ratio is at most 0.25.

Regarding EQYS, the enrichment ratio is at most 0.25.

Regarding RWWK, the enrichment ratio was at most 0.25.

Turning to HWEA, the enrichment ratio is at most 0.25.

Regarding PKVS, the enrichment ratio is at most 0.25.

With ITQC, the enrichment ratio is at most 0.25.

Regarding VGHK, the enrichment ratio was at most 0.25.

In the case of DMSY, the enrichment ratio was at most 0.25.

For FHWA, the enrichment ratio is at most 0.25.

Regarding ENRG, the enrichment ratio was at most 0.25.

With AITR, the enrichment ratio came out at 7.38.

On to RNLK, for which the enrichment ratio was at most 0.25.

For LDSM, the enrichment ratio was at most 0.25.

For the variant AFNL, the enrichment ratio is at most 0.25.

With AQLC, the enrichment ratio stood at 5.23.

Regarding KKDM, the enrichment ratio was at most 0.25.

With WRKD, the enrichment ratio is at most 0.25.

On to EQVM, for which the enrichment ratio was at most 0.25.

For THCA, the enrichment ratio was determined as 10.9.

Regarding INDT, the enrichment ratio was at most 0.25.

For the variant HPIK, the enrichment ratio is at most 0.25.

Consider FATC, for which the enrichment ratio is at most 0.25.

With FYPY, the enrichment ratio was at most 0.25.

Consider YACN, for which the enrichment ratio is at most 0.25.

As for LHNS, the enrichment ratio was at most 0.25.

With NHHS, the enrichment ratio is at most 0.25.

DSHG: the enrichment ratio is at most 0.25.

As for VDPY, the enrichment ratio is at most 0.25.

As for PTEM, the enrichment ratio was at most 0.25.

With TKFV, the enrichment ratio amounted to 0.925.

For the variant QIGW, the enrichment ratio was at most 0.25.

Consider FASR, for which the enrichment ratio is at most 0.25.

As for VKDP, the enrichment ratio was at most 0.25.

For the variant DTNS, the enrichment ratio was at most 0.25.

As to RIFH, the enrichment ratio was at most 0.25.

Take ILHS: the enrichment ratio is at most 0.25.

As to WAIR, the enrichment ratio is at most 0.25.

EASA: the enrichment ratio is at most 0.25.

For DGWV, the enrichment ratio was at most 0.25.

With HVVH, the enrichment ratio is at most 0.25.

Regarding KCTA, the enrichment ratio was at most 0.25.

On to RHIC, for which the enrichment ratio is 0.278.

PRYT: the enrichment ratio is at most 0.25.

Consider SHIL, for which the enrichment ratio is at most 0.25.

For the variant HKAS, the enrichment ratio is at most 0.25.

For the variant NYTD, the enrichment ratio was at most 0.25.

Turning to KFDN, the enrichment ratio is at most 0.25.

On to GLLA, for which the enrichment ratio is at most 0.25.

YTMF: the enrichment ratio stood at 5.8.

Take YDDC: the enrichment ratio is at most 0.25.

Consider NHKA, for which the enrichment ratio was at most 0.25.

Take EYND: the enrichment ratio is at most 0.25.

Take YLYQ: the enrichment ratio is at most 0.25.

For LENV, the enrichment ratio is at most 0.25.

Regarding SSNK, the enrichment ratio is at most 0.25.

Consider WMVK, for which the enrichment ratio was at most 0.25.

For the variant DWPP, the enrichment ratio was at most 0.25.

YRDM: the enrichment ratio is at most 0.25.

For MGQI, the enrichment ratio is at most 0.25.

These data come from a collection of fitness landscapes (doi:10.1126/science.1257360).
